Experimental data as given in the RNAGym collection of RNA variant scans (doi:10.1073/pnas.2313332121).
This sample is rich in variants without activity.

B1: TPR 5TU (parent)
chain: GGAUCUUCUCGAUCUAACAAAAAAGACAAAUCUGCCACAAAGCUUGAGAGCAUCUUCGGAUGCAGAGGCGGCAGCCUUCGGUGGCGCGAUAGCGCCAACGUUCUCAACUAUGACACGCAAAACGCGUGCUCCGUUGAAUGGAGUUUAUCAUG

Variants of: B1
Assay: polymerase ribozyme fitness, log enrichment relative to wild type (log ratio); higher = more active; in vitro selection for triplet polymerase activity
Outline: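 Mutant libraries were PCR-built and transcribed for each subunit of a heterodimeric triplet polymerase ribozyme and selected for one round in triplicate at −7 °C, frozen, before gel excision of extended constructs and streptavidin-bead capture. Input and output libraries were Illumina-sequenced, keeping genotypes with ≥10 input reads and ≥1 read per output. Fitness is a logarithmic ratio of genotype to wild-type enrichment, in base 2, using inverse-variance-weighted replicate averages.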

Variant	polymerase ribozyme fitness (log ratio)
GGAUCUUCUCGAUCUAACAAAAAAGACAAAUCUGCCAGAAAGCUUGAGAGCAUCUUCGGAUGCUGAGGCGGCAGCCUUCGCUGGCGCGAUAUCGCCCACGUCCUCAUCUAUGACACGCAAAACGCGUGCACCGUUGAAUGGAGUUUAUCAUG [C38G A64U G81C G92U A97C U102C A107U U130A]	≤ -4.2
GGAUCUUCUCGAUCUAACAAAAAAGACAAAUCUGCCAGAAAGCUUGAGACCAUCUUCGGAUGCAUAGGCGGCAGCCUUCGGUGACGCGAUAGCGCUAAUGUUCUCAACUAGGACACGCAAAACGCGUGCUCCGUUGAAUGGAAUUUAUCAUG [C38G G50C G65U G84A C96U C99U U111G G143A]	≤ -4.2
GGAUCUUCUCGAUCUAACAAAAAAGACAAAUCUGCCAGAAAGCUUGAGAGUAUCUUCGGAUGCAGAGGCGGCAGCCUUCGGUGGCGCGAUAGCGACAAGGUUCUCUACUAUGACACGCAAAACGAGUGCUCCGAUGAAUGGAGUUUAUCAUG [C38G C51U C95A C99G A106U C125A U134A]	≤ -4.2
GGAUCUUCUCGAUCUAACAAAAAAGACAAAUCUGCCAGAAAGCUUGAGAGCAUCUUCGGAUGCAGAGGCGGCAGCCUUCGGUGGCGCCAUAGCGCCAACGUUCUCAACUAUGACACGCAAAACCCGUGCUCCGUUGAAUGGAGUUUAUCAUG [C38G G88C G124C]	≤ -4.2
GGAUCUUCUCGAUCUAACAAAAAAGACAAAUCUGCCAGAAAGCUUGAGAGCAUCUUCGGAUGCAGAGGUCGCAGCCUUCGGUGGCGCGAUAGCGCCAACGUGCUCAACUAUGACACGCAAACCGUGUGCUCCGUUGAAUGGAGUUUAUCAUG [C38G C69U G70C U102G A122C C125U]	≤ -4.2
GGAUCUUCUCGAUCUAACAAAAAAGACAAAUCUGCCAGAAAGCUUGAGAGCAUCGUCGGAUGCAGAGGUAGCAGCCUUCGGUGGCGCGAUAGCGCGAACGUUCUCAACUCUGACACGCAAAACGUGUGCUCCGUUGAAGGGAGGUUAUCUUG [C38G U55G C69U G70A C96G A110C C125U U139G U144G A150U]	≤ -4.2
GGAUCUUCUCGAUCUAACAAAAAAGACAAAUCUGCCAGAAAGUUUGAGAGCAUCUAUGGAUGCAGAGGCGGCAGCCUUCGGUGGCGCGAUAGCGCCAACGUUCUCAACUAUGACACGCAAAACGCGUGCUCCGUUGAAUGGAGUUUAUCAUG [C38G C43U U56A C57U]	≤ -4.2
GGAUCUUCUCGAUCUAACAAAAAAGACAAAUCUGCCAGAAAGCUUGAGAGCAUCUUCGGAUGCAGAGGCGGCAGCCUUCGGUGGCGCGAUAGCGCCAACGUUCUCAACUAUGACACGCAAAACGCGUGCUCCGUUGAAUGGCGUUUAUCAUG [C38G A142C]	-1.24
GGAUCUUCUCGAUCUAACAAAAAAGACAAAUCUGCCAGAAAGCUUGAGAACAUCUUCGGAUGCAGAGGCGGCAGCCUUCGGUGGCUCGAUAGCGCCAACGUUCUCAACUAUGACAAGCAAAACGCGUGCUCCGUUGAAUGGAGUUUAUCACG [C38G G50A G86U C116A U151C]	≤ -4.2
GGAUCUUCUCGAUCUAACAAAAAAGACAAAUCUGCCAGAAAGCUUGAGAGCAUCUUCGGAUGCCGAGGCAGCAGCCUUCGGUGGCGCGAUAGCGCCAACGUUCUCAACUAUGACACGUAAAACGCGUGCGCCGUUGUAUGGAGUUUAUCAUG [C38G A64C G70A C118U U130G A137U]	≤ -4.2
GGAUCUUCUCGAUCUAACAAAAAAGACAAAUCUGCCAGAAAGCUUGAGAGCAUCUUCGGAUGCAGAGGCGGCAGCCUUCGGUGGCGCGGUAGAGCCAACGUUCUCAACUAUGACAGGCAAAACGCGUACUCCGGUGAAUGGAGUUUAUCAUG [C38G A89G C93A C116G G128A U134G]	≤ -4.2
GGAUCUUCUCGAUCUAACAAAAAAGACAAAUCUGCCAGAAAGCUUGAGAGCAUCUUCGGAUGCAGAGGCGGCAGCCGUCGGUGGCGCGAUAGCGCCAACGUUAUCAACUAUGACACGCAAAACGCAUGCUCCGUUGAAUGGAGUUUAUCAUG [C38G U77G C103A G126A]	≤ -4.2
GGAUCUUCUCGAUCUAACAAAAAAGACAAAUCUGCCAGAAAGCUUGAGAGCAUCUUCGGAUGCAGAGGCGGCAGCCUUCGGUGGCGCGAUAGCGCCAUCGUUCUCAACCAUGACAAGCAAAACGGGUGCUCCGUUGAAUGGAGUUUAUCAUG [C38G A98U U109C C116A C125G]	≤ -4.2
GGAUCUUCUCGAUCUAACAAAAAAGACAAAUCUGCCAGAAAGCUUGAGAGCAUCUUCGGAUGCAGAGGCAGCAGCCUUCGGUGGCGAGAUAGCGCCAACGUUCACCACUAUGACAAGCAAAACGCGUGCUCCGUUGAAUGGAGGUUAUCAUG [C38G G70A C87A U104A A106C C116A U144G]	≤ -4.2
GGAUCUUCUCGAUCUAACAAAAAAGACAAAUCUGCCAUCAAGCUUGAGAGCAUCUUCGGAUGCAGAGGCGGCAGCCUUCGGUGGCGCGAUAUCGCCAACGUGCUCAACUAUGACACGCAAAACGCGUGCUCCGUUGAAUGGAGUUUAUCAUG [C38U A39C G92U U102G]	≤ -4.2
GGAUCUUCUCGAUCUAACAAAAAAGACAAAUCUGCCAGAAACCUUGAGAGCAUCUUCGGAUGCAGAGGCGCCAGCCUUCGGUGGCGCGAUAGCGAAAACGUUCUCAACUAUGACACGCAAAACGCGUGCUCCGUUGAAUGGAGUUUAUCAUG [C38G G42C G71C C95A C96A]	≤ -4.2
GGAUCUUCUCGAUCUAACAAAAAAGACAAAUCUGCCAUAACUCUUGAGAGCAUCUUCGGAUGCAGAGGCGGCAGCGUUCGCUGGCGCGAUAGCGCCAAUGUUCUCAACUAUGACACGCAAAACGCGUGCUCCUUUGAAUGGAGUUUAUCAUG [C38U A41C G42U C76G G81C C99U G133U]	≤ -4.2
GGAUCUUCUCGAUCUAACAAAAAAGACAAAUCUGCCAUAGAGCUUGAGAGCAUCUUCGGAUGCAGAGGCGGCAGCCUUCGGUGGCGCGAUAGCGCCAACGUUCUCAACUAUGACACGCAAAACGCGUGCUCCGUUGAAUGGAGUUUAUCAUG [C38U A40G]	-2.26
GGAUCUUCUCGAUCUAACAAAAAAGACAAAUCUGCCAGAAAGCUUGAGAGCAUCUUCGGAUGCAGAGGCGGCAGCCUUCGGUGGGGCGAUAGCGCCAACGUUCUUAACUAUGACACGCAAUACACGUGCUCCGUUGAAUGGAGUUUAUCAUG [C38G C85G C105U A121U G124A]	-2.25
